In a compilation of properties of binary mixtures (doi:10.1021/je300316a):
The densities may have been worked out from excess volumes.

Assay: xn = mol fraction of the nth substance listed
Details: 101 kPa

CC[n+]1ccn(C)c1.F[B-](F)(F)F + CC#N
mass density [kg/m3]
Details | x2 = 0 | x2 = 0.0797 | x2 = 0.1787 | x2 = 0.2803 | x2 = 0.3682 | x2 = 0.4903 | x2 = 0.5753 | x2 = 0.7116 | x2 = 0.8301
293.15 K | 1290.6 | – | – | 1236.6 | 1213.4 | 1176.5 | – | 1073.4 | 985
298.15 K | 1286.8 | 1273.2 | 1254.4 | 1232.6 | 1209.4 | 1172.4 | – | 1068.9 | –
303.15 K | – | 1269.3 | 1250.5 | – | 1205.4 | 1168.2 | 1134.8 | 1064.5 | 975.6
313.15 K | – | 1261.7 | – | 1220.8 | 1197.4 | 1160.1 | 1126.5 | – | 966.3
323.15 K | 1268 | 1254.2 | 1235.2 | 1213.1 | 1189.5 | 1152 | – | – | 956.9
333.15 K | 1260.5 | 1246.7 | 1227.6 | 1205.4 | 1181.7 | 1144 | 1110 | 1038.3 | 947.5

CS(C)=O + CC[n+]1ccn(C)c1.F[B-](F)(F)F
x1 = 1
Details | mass density [kg/m3]
298.15 K | 1095.7
303.15 K | 1090.7
333.15 K | 1060.6
343.15 K | 1050.6
353.15 K | 1040.5

CS(C)=O + CCCCCC[n+]1ccn(C)c1.F[B-](F)(F)F
x1 = 1
Details | mass density [kg/m3]
293.15 K | 1100.8
298.15 K | 1095.7
303.15 K | 1090.7
313.15 K | 1080.7
323.15 K | 1070.7
333.15 K | 1060.6
343.15 K | 1050.6
353.15 K | 1040.5

CC#N + CCCCCC[n+]1ccn(C)c1.F[B-](F)(F)F
x1 = 1
Details | mass density [kg/m3]
293.15 K | 782
298.15 K | 776.6
303.15 K | 771.1
313.15 K | 760.2
323.15 K | 749.1
333.15 K | 737.9
343.15 K | 726.4

CC[n+]1ccn(C)c1.F[B-](F)(F)F + CS(C)=O
mass density [kg/m3]
Details | x2 = 0 | x2 = 0.0872 | x2 = 0.2021 | x2 = 0.2931 | x2 = 0.4098 | x2 = 0.4781 | x2 = 0.5718 | x2 = 0.6689 | x2 = 0.7866 | x2 = 0.8959
293.15 K | 1290.6 | 1283 | – | 1263.1 | 1249.2 | – | – | 1205.9 | 1176.8 | –
298.15 K | 1286.8 | 1279.1 | – | – | 1245.2 | 1235.7 | 1220.7 | – | 1172.4 | 1137.4
303.15 K | 1283 | – | – | – | 1241.1 | 1231.7 | 1216.5 | 1197.4 | 1167.9 | 1132.7
313.15 K | – | 1267.7 | 1257 | 1247.3 | 1233.1 | 1223.6 | 1208.3 | 1188.9 | 1159.1 | –
323.15 K | 1268 | – | 1249.3 | 1239.5 | – | 1215.5 | 1200.1 | – | 1150.4 | 1114.2
333.15 K | 1260.5 | 1252.6 | 1241.7 | 1231.8 | 1217.4 | – | 1191.9 | 1172.1 | 1141.6 | 1104.9
343.15 K | 1253.2 | 1245.2 | 1234.2 | 1224.2 | – | 1199.7 | – | – | 1132.9 | 1095.7
353.15 K | 1245.9 | 1237.8 | 1226.7 | 1216.6 | 1201.8 | 1191.8 | 1175.8 | – | 1124.2 | 1086.4

CC#N + CC[n+]1ccn(C)c1.F[B-](F)(F)F
x1 = 1
Details | mass density [kg/m3]
293.15 K | 782
303.15 K | 771.1
323.15 K | 749.1
333.15 K | 737.9

CCCCCC[n+]1ccn(C)c1.F[B-](F)(F)F + CS(C)=O
mass density [kg/m3]
Details | 293.15 K | 298.15 K | 303.15 K | 313.15 K | 323.15 K | 333.15 K | 343.15 K | 353.15 K
x2 = 0 | 1148.8 | 1145.3 | 1141.9 | 1135 | – | 1121.5 | 1114.8 | 1108.1
x2 = 0.1024 | – | 1143.5 | 1140.1 | 1133.2 | 1126.3 | 1119.5 | – | 1105.9
x2 = 0.2117 | 1145.2 | 1141.6 | 1138.1 | 1131 | 1124 | – | 1110 | –
x2 = 0.2483 | 1144.5 | 1141 | 1137.4 | 1130.3 | 1123.2 | 1116.1 | 1109.1 | 1102.1
x2 = 0.3298 | 1143 | – | 1135.7 | 1128.5 | 1121.3 | 1114.1 | 1107 | 1099.9
x2 = 0.4286 | 1140.8 | – | 1133.4 | – | – | 1111.3 | 1104 | 1096.7
x2 = 0.4964 | 1138.9 | 1135.1 | 1131.4 | 1123.8 | – | 1108.9 | 1101.5 | 1094.1
x2 = 0.6143 | 1134.6 | 1130.7 | 1126.8 | 1119 | 1111.2 | 1103.5 | 1095.8 | 1088.2
x2 = 0.7169 | 1129.6 | – | 1121.5 | 1113.4 | 1105.3 | 1097.3 | 1089.3 | –
x2 = 0.7505 | 1127.5 | – | 1119.3 | 1111 | 1102.9 | 1094.7 | 1086.5 | 1078.4
x2 = 0.884 | 1116.6 | 1112.2 | – | – | – | 1081 | 1072.2 | 1063.3

CCCCCC[n+]1ccn(C)c1.F[B-](F)(F)F + CC#N
mass density [kg/m3]
Details | x2 = 0 | x2 = 0.0956 | x2 = 0.1917 | x2 = 0.3374 | x2 = 0.4303 | x2 = 0.5384 | x2 = 0.5934 | x2 = 0.7052 | x2 = 0.7951 | x2 = 0.896
293.15 K | 1148.8 | 1141.5 | 1131.7 | 1113.7 | 1099.3 | 1077.6 | 1063.6 | – | 985.5 | 912.5
298.15 K | 1145.3 | 1138 | – | 1110 | – | – | 1059.6 | – | 981.2 | 907.8
303.15 K | 1141.9 | 1134.5 | 1124.6 | 1106.4 | 1091.9 | 1069.9 | 1055.7 | 1019.6 | 976.9 | 903.1
313.15 K | 1135 | – | 1117.5 | 1099.1 | 1084.5 | 1062.3 | – | 1011.4 | – | 893.7
323.15 K | 1128.2 | 1120.7 | 1110.5 | 1091.9 | 1077.1 | 1054.6 | 1040.1 | 1003.3 | 959.6 | 884.2
333.15 K | 1121.5 | 1113.8 | 1103.5 | 1084.7 | 1069.8 | – | 1032.4 | 995.1 | 950.9 | 874.7
343.15 K | 1114.8 | 1107 | 1096.6 | 1077.6 | – | 1039.5 | – | 987 | 942.3 | 865.2
